According to PubChem BioAssay AID463173 (ICCB-Longwood Screening Facility, Harvard Medical School, 2010):
Screen size: about 52,000 compounds; about 4,300 (8.3%) were called active. No stated cut-off is given here; in the data, active means survival mostly below about 52% (no sharp cut-off); inactive means mostly above about 56%. The list shows a part of the results.

System: DeltatarO mutant
Assay: S. aureus survival, RN4220 and DeltatarO strains – OD600, teichoic acid synthesis inhibitors, primary screen (AID 463173)
Conditions: S. aureus RN4220 wild type/DeltatarO growth, OD600, 18 h, stronger effect = lower value, screened at 18.75 µg/mL (by protocol)

Structure (SMILES) | survival
CC(C)(CO)NC(=O)c1ccc(Cl)c(S(=O)(=O)N2CCCCC2)c1 | inactive: 73%
CCOc1ccc(Nc2ncnc3c2cnn3-c2ccc(F)cc2)cc1 | inactive: 76%
CCOC(=O)C(=O)Nc1nnc2n1CCS2 | inactive: 76%
COc1ccc(NC(=O)Cn2c(=O)n(Cc3ccccc3)c(=O)c3oc4ccccc4c32)cc1Cl | inactive: 85%
Cc1nc2c(C(=O)NCc3ccccc3Cl)cnn2c(C)c1Cc1ccccc1 | inactive: 79%
Cc1nc(N2CCCC2)ncc1C(=O)N1CCN(c2ccc(Cl)cc2)CC1 | inactive: 80%
CCOc1ccc(NC(=O)Cn2nnc(C(=O)NCCc3ccccc3)c2N)cc1 | inactive: 76%
COc1cc(NC(=O)N2CCC3(CC2)Nc2ccccc2-n2cccc23)cc(OC)c1OC | inactive: 101%
O=C(CSc1nc2c([nH]c3ccccc32)c(=O)n1-c1ccccc1)Nc1ccc(Cl)c(Cl)c1 | inactive: 77%
CCc1nn(CC(=O)Nc2c(C)cccc2C)c(=O)c2cc3sccc3n12 | inactive: 87%
CNC(=O)c1c(NC(=O)Cc2coc3ccc(C)cc23)sc2c1CCCC2 | inactive: 53%
COc1ccc(-c2noc(-c3ccc(NCC4CCCO4)c([N+](=O)[O-])c3)n2)cc1 (stereo unspecified) | active: 42%
O=C(Nc1ccccc1C(=O)NC1CCCC1)NC1CCCC1 | inactive: 70%
COc1ccc(CN(Cc2ccco2)C(=O)c2cc3ccccc3oc2=O)c(OC)c1 | active: 40%
O=C(CSc1nnc(-c2ccccc2F)o1)Nc1ccccc1Cl | inactive: 113%
COc1ccc(CCNC(=O)Cn2cc(S(=O)(=O)Cc3ccccc3Cl)c3ccccc32)cc1OC | inactive: 80%
O=C(CSc1nnc(-c2ccc(S(=O)(=O)N3CCOCC3)cc2)o1)c1c[nH]c2ccccc12 | inactive: 95%
Cc1ccccc1C(=O)N1CCC(C(=O)NC2CCCCCC2)CC1 | inactive: 71%
Brc1ccc2ncnc(NCCCN3CCOCC3)c2c1 | inactive: 91%
CCOC(=O)c1ccc(NC(=O)c2cn(-c3ccccc3)nc2-c2ccc(OC)c(OC)c2)cc1 | inactive: 129%
O=C(Nc1cccc(-c2nc3cccnc3s2)c1)c1cccc(Br)c1 | active: 32%
N#Cc1ccccc1NC(=O)C(=O)NCCc1csc(-c2ccc(F)cc2)n1 | inactive: 83%
Cc1ccc(S(=O)(=O)c2nc(-c3cccs3)oc2SC(C)C)cc1 | inactive: 66%

Structure (SMILES) | survival
CCNC(=O)CC1C(=O)N(c2ccc(C)cc2)C(=O)N1CCC(C)C (stereo unspecified) | inactive: 91%
O=C(Cn1c(=O)oc2cc(S(=O)(=O)N3CCCC3)ccc21)Nc1ccc(F)cc1F | inactive: 77%
COc1ccc2c(Sc3ccc(Cl)cc3)c(C(=O)N3CCC(C)CC3)[nH]c2c1 | inactive: 64%
COc1ccccc1NC(=O)C1=C(C)Nc2sc(C#N)c(N)c2C1c1ccco1 (stereo unspecified) | inactive: 76%
COc1ccccc1NC(=O)CSc1oc(-c2ccccc2)nc1S(=O)(=O)c1ccc(C)cc1 | inactive: 158%
CN(C)c1ccc(C2NCCS2)cc1 (stereo unspecified) | inactive: 70%
CCOC(=O)c1cnc2c(-c3ccccc3)c(C(F)(F)F)nn2c1C | inactive: 88%
O=C(CSc1c2c(nc3cc(Cl)ccc13)CCCC2)N1CCN(c2ccccc2F)CC1 | inactive: 50%
CCOC(=O)c1noc2ncn(CC(=O)Nc3cccc(Cl)c3)c(=O)c12 | inactive: 77%
O=C(COc1ccc2ccccc2c1)NC1CC(=O)N(c2ccccc2)C1 (stereo unspecified) | inactive: 88%
Cc1ccc2nc(-c3cccnc3)c(Nc3ccc(C(C)C)cc3)n2c1 | inactive: 94%
Cc1nc(-c2ccc(S(=O)(=O)N3CCN(c4cc(Cl)ccc4C)CC3)cc2)co1 | inactive: 90%
O=C(NCCc1ccc(Cl)cc1)C1COc2ccccc2C1 (stereo unspecified) | inactive: 69%
Cc1cn2c(=O)c(S(=O)(=O)N3CCN(c4cc(Cl)ccc4C)CC3)c(C)nc2s1 | inactive: 94%
CC1CCN(C(=O)c2cccc(Cl)c2)CC1 | inactive: 93%
CSCCC(NS(=O)(=O)c1ccc2c(c1)oc(=O)n2C)C(=O)N1CCN(c2ccc(C(C)=O)cc2)CC1 (stereo unspecified) | inactive: 84%
COc1cccc(C(=O)NCC(=O)OCc2cc(=O)n3ccsc3n2)c1 | inactive: 104%
CCc1ccccc1NC(=O)c1ccc(=O)n(Cc2ccc(F)cc2)c1 | inactive: 67%
CCc1ccc(-n2c(=O)c3cccnc3n2CC(=O)Nc2cc(OC)ccc2OC)cc1 | inactive: 95%
Cc1ccc(C(=O)Nc2nc(-c3nnn(-c4cccc(C(F)(F)F)c4)c3C)ns2)cc1 | inactive: 60%
COc1cc(OC)cc(C(=O)Nc2nnc3n2CCS3)c1 | inactive: 73%
CCOC(=O)c1c(C)oc2nc(C)nc(NCc3cccc(Cl)c3)c12 | inactive: 87%
CCCCOc1cccc(NC(=O)c2cccc(C(=O)Nc3cccc(OCCCC)c3)c2)c1 | inactive: 75%

Structure (SMILES) | survival
CCOC(=O)c1nc(Nc2ccc(C(=O)OC)cc2)c2ccccc2n1 | inactive: 57%
CC(=O)C1=C(c2ccc(Br)cc2)N(C(C)=O)n2c(nnc2C2CCCCC2)S1 | inactive: 88%
CCn1ccc2cc(S(=O)(=O)N3CCC(C(=O)NCCc4ccccc4)CC3)ccc21 | inactive: 102%
COc1cc(OC)c(NC(=O)c2c(C)oc3nc(C)nc(N4CCOCC4)c23)cc1Cl | inactive: 92%
CCOC(=O)C1=C(O)CSC1=NC(=O)c1ccc(OC)cc1 | inactive: 99%
COc1cccc(-n2cc(C(=O)OCc3ccc(Cl)cc3)c3ccccc3c2=O)c1 | inactive: 85%
Cc1cccc(CNC(=O)c2ccc(C)c(-n3c(C)nc4cccnc43)c2)c1 | inactive: 67%
CCOc1ccc(-n2c(=O)c3c(C)c(C)sc3n(CC(=O)N3CCC(C)CC3)c2=O)cc1 | inactive: 71%
CC(C)CC(=O)Nc1nnc(SCc2cc(=O)n3ccccc3n2)s1 | inactive: 71%
CCc1nnc(NC(=O)c2sc3nc4ccc(OC)cc4cc3c2N)s1 | inactive: 77%
Cc1ccc(CCNC(=O)c2cn(C)c3ccc(S(=O)(=O)N4CCC(C)CC4)cc3c2=O)cc1 | inactive: 72%
Cc1cc(C)c(NC(=O)CCCn2c(C)c3cnn(-c4ccccc4)c(=O)c3c2C)c(C)c1 | inactive: 94%
CCOC(=O)c1c(S(=O)(=O)NCC(=O)Nc2ccc(F)cc2C)c(C)n(C)c1C | inactive: 83%
COc1cc(OC)cc(-c2nc3nc(C)c(CCC(=O)NCCC(C)C)c(C)n3n2)c1 | inactive: 88%
O=C(Nc1ccccc1C(F)(F)F)c1ccncc1 | inactive: 91%
COc1ccccc1NC(=O)CN1C(=O)CSc2ccc(S(=O)(=O)N3CCCC3)cc21 | inactive: 99%
CCN(CC)S(=O)(=O)c1ccc2[nH]cc(C(=O)NCCc3ccccc3)c(=O)c2c1 | inactive: 75%
COc1cc(C2C(=O)N(C3CCCCC3)CC(=O)N2CCC2=CCCCC2)ccc1OC(C)C (stereo unspecified) | inactive: 102%
COc1cccc(CNC(=O)CSc2nnc(C)c3c(C)n(-c4ccccc4)nc23)c1OC | inactive: 83%
CCOC(=O)C1CCCN(C(=O)Cn2ncc3c(C)n(Cc4ccccc4F)c(C)c3c2=O)C1 (stereo unspecified) | inactive: 116%
Cc1cc(C)cc(NC2=C(c3ccccc3)C(=O)c3ccccc32)c1 | active: 39%
COC(=O)CNC(c1ccccc1)c1cc(Br)ccc1NC(=O)c1ccccc1 (stereo unspecified) | inactive: 52%
COc1cccc(-n2cc(C(=O)Nc3cc(OC)c(OC)c(OC)c3)c3ccccc3c2=O)c1 | inactive: 87%

Structure (SMILES) | survival
CCOC(=O)c1cccc(NC(=O)c2cc(S(=O)(=O)N3CCCC(C)C3)cn2C)c1 (stereo unspecified) | inactive: 86%
CC(=O)N1N=C(N)SC1(C)c1ccccc1 (stereo unspecified) | inactive: 83%
CC1=C(C(N)=O)C(c2ccc(C)cc2)n2nc(SCc3ccccc3F)nc2N1 (stereo unspecified) | inactive: 67%
CCN(CC)c1ccc(C=C2C(=O)OC3(CCCC3)OC2=O)cc1 | inactive: 83%
CCN(CC)C(=O)N1CCc2cc(OC)c(OC)cc2C1c1cc2cc(C)ccc2n(C(=O)N(CC)CC)c1=O (stereo unspecified) | inactive: 91%
Fc1ccc(N2CCN(c3ncnc4c3nc3n4CCCCC3)CC2)cc1 | inactive: 81%
Cc1cccc(NC(=O)Nc2ccc(Br)cc2)n1 | inactive: 126%
CCOCCCn1c(=N)c(C(=O)NCc2cccnc2)cc2c(=O)n3cc(C)ccc3nc21 | inactive: 79%
CCOC(=O)c1cnc2c(ccc3ccccc32)c1Nc1ccc(OCC)cc1 | active: 5%
COc1ccc(S(=O)(=O)c2c(O)c3ccc(C(=O)NCc4ccccc4)cc3[nH]c2=O)cc1 | inactive: 64%
Cc1ccc(-n2nc3c(N4CCC(C(=O)NC(C)c5ccccc5)CC4)nnc(C)c3c2C)cc1 (stereo unspecified) | inactive: 107%
NC(=S)Cc1c[nH]c2ccccc12 | inactive: 91%
CCOc1ccc(Nc2cc(C)nc3nc(Cc4ccc(Cl)cc4)nn23)cc1 | inactive: 62%
O=C(Cn1ccc2ccccc2c1=O)NCCC(=O)Nc1ccc(F)cc1F | inactive: 62%
COc1ccccc1N1CCN(C(=O)c2c(C)oc3ncn(CC(C)C)c(=O)c23)CC1 | inactive: 76%
COCCOC(=O)C1=C(C)NC(=S)NC1c1ccc(C)c(OC)c1 (stereo unspecified) | inactive: 89%
CCN1CCN(c2ccc(NC(=O)c3cccc(Cl)c3Cl)cc2)CC1 | inactive: 92%
COc1ccc(-c2cc(C(F)(F)F)nc(SCC(=O)N3CCCCC3C)n2)cc1OC (stereo unspecified) | inactive: 52%
CCc1cccc(C)c1NC(=O)C1CCN(c2nn3c(=O)cc(C)nc3s2)CC1 | inactive: 119%
O=C(NCc1ccccc1)C1CCCN(c2ncccn2)C1 (stereo unspecified) | inactive: 88%
Cc1onc(-c2c(F)cccc2Cl)c1C(=O)Nc1ccc(OC(C)C)cc1 | inactive: 62%
Cc1ccc2oc(=O)c3cc(C(=O)Nc4ccccc4C(N)=O)sc3c2c1 | inactive: 85%
